# Hit rate of the full screen: of about 420,000 compounds, about 64,000 (15%) were called active. The shares of active, inactive and inconclusive entries below differ from those in the screen. Calls come from the whole dose curve; as a rule, active = well fitted inhibition curve with a large enough effect; inconclusive = small, poorly fitted or top-dose-only effect; inactive = flat fitted curve, though single readings scatter. No potency is given beside an inconclusive call; the fits are too rough.
# Assay: qHTS for Inhibitors of human tyrosyl-DNA phosphodiesterase 1 (TDP1): qHTS in cells in absence of CPT; note: nearly all actives have a fitted effect of over 55% in size
# Settings: DT40 Tdp1-/- hTDP1 cells, no CPT, ATP luminescence, 48 h; activity change, negative = growth inhibition: at 46.2 µM (top of the series) unless noted
# In short: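 DT40 Tdp1-/-;hTDP1 cells, no CPT (DMSO vehicle only), 400 cells/well; compounds pin-transferred; ≥48 hr, 37 °C; CellTiter-Glo 30 min RT dark, luminescence read.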
# % is set by controls: 0 for no effect and ±100 for the full control effect; potency is the fitted concentration of half-maximal effect; tags give direction and shape of the fitted curve.
SMILES,"activity change, negative = growth inhibition",Potency
COc1ccc(CNS(=O)(=O)c2ccc3c(c2)C(C)(C)C(=O)N3C)cc1OC,inactive: 0.394%,
COc1ccc(C(=O)NCCc2ccccn2)cc1S(=O)(=O)Nc1ccc(Br)cc1,inactive: -3.56%,
C[C@@H]1CN([C@H](C)CO)C(=O)CCCn2nncc2CO[C@@H]1CN(C)C(=O)CCC(F)(F)F,inactive: -1.58%,
O=[N+]([O-])c1ccc(Cl)c(S(=O)(=O)Nc2ccc(S(=O)(=O)N3CCOCC3)cc2)c1,inactive: -11.6%,
COCCn1c(=S)[nH]c2cc(C(=O)N(CCO)Cc3ccccc3)ccc2c1=O,inactive: 0.0902%,
CCOc1ccc(Cl)cc1CSc1n[nH]c(C)n1,,"inconclusive [inhibitor, single point]"
O=C(c1cccc(S(=O)(=O)N2CCc3ccccc32)c1)N1CCCC(C(F)(F)F)C1 (stereo unspecified),,active: 20.6 µM
COc1cccc(Nc2ncnc3sccc23)c1,,"inconclusive [inhibitor, single point]"
CC(C)OCCCNc1ncnc2c1cnn2-c1ccccc1,,"inconclusive [inhibitor, single point]"
COC(=O)c1cc2sc(Cl)cc2n1Cc1nc(-c2ccccc2F)oc1C,inactive: -11.7%,
O=C1C=C(c2cccc(Br)c2)C[C@@H](c2ccc3c(c2)OCO3)C1,,active: 23.1 µM
CCNC(=O)C1(C)CCCN(C(=O)c2ccc3ccccc3n2)C1 (stereo unspecified),inactive: -3.43%,
CC(C)(C)C(=O)C(C(c1ccccc1)N1CCOCC1)N1CCOCC1 (stereo unspecified),,"inconclusive [inhibitor, single point]"
NC(=O)C1CCN(C(=O)c2cc(S(=O)(=O)N3CCN(c4ccccc4)CC3)ccc2Cl)CC1,,active: 6.51 µM
CCN(c1ccccc1)S(=O)(=O)c1ccc(OC)c(NC(=O)Cc2ccccc2OC)c1,,active: 23.1 µM
O=C(NC1CC1)C1Nc2ccc(OC(F)(F)F)cc2C2C=CCC12 (stereo unspecified),,active: 13 µM
Cc1cccc(N2CCN(C(=O)c3cccc(-n4c(C)nc5cccnc54)c3)CC2C)c1 (stereo unspecified),,active: 6.51 µM
COc1ccccc1C(=O)N(Cc1cc2cc3c(cc2nc1N(C)C)OCO3)CC1CCCO1 (stereo unspecified),,"inconclusive [inhibitor, single point]"
CCOC(=O)C1=C(CS(=O)(=O)c2ccc(F)c(C)c2)NC(=O)NC1c1ccc(F)c(F)c1 (stereo unspecified),,"inconclusive [inhibitor, single point]"
CCCn1c2ccccc2c2nnc(SCC(=O)Nc3c(C)n(C)n(-c4ccccc4)c3=O)nc21,,"inconclusive [inhibitor, partial curve, poor fit]"
Cc1ccc2nc(-c3ccc(C#N)cc3)c(Cc3ccccn3)n2c1,,"inconclusive [inhibitor, single point]"
CCCc1ccc2oc(C(=O)NCCc3nc(C(=O)OCC)cs3)c(C)c2c1,,"inconclusive [inhibitor, single point]"
O=C(CSc1nnnn1Cc1ccccc1)c1ccccc1F,,"inconclusive [inhibitor, single point]"

SMILES,"activity change, negative = growth inhibition",Potency
CCOc1ccc(NC(=O)COc2cccc3c2CCN(Cc2cccnc2)C3=O)cc1,,"inconclusive [inhibitor, single point]"
Cc1cc(C)c2c(n1)SCC(=O)N2CC(=O)Nc1c(C)cccc1C,,"inconclusive [inhibitor, full curve, poor fit]"
CCN(C(=O)c1cc(S(=O)(=O)N2CCCC2)ccc1C)C1CCS(=O)(=O)C1 (stereo unspecified),inactive: 13.6%,
CC(C)(C)c1ccc(C(=O)NC(=O)COC(=O)c2ccc(Br)o2)cc1,,"inconclusive [inhibitor, partial curve]"
CCc1nc(SCC(=O)NNC(=O)c2ccc(C)cc2)c2ccccc2n1,inactive: -19.2%,
COC(=O)C1CC(c2ccc(Cl)cc2)=NO1 (stereo unspecified),inactive: 0.689%,
O=C(OCC(O)C(O)COC(=O)c1ccccc1)c1ccccc1 (stereo unspecified),inactive: -8.97%,
CNC(=S)N1CCC(c2nc3ccccc3s2)CC1,,"inconclusive [inhibitor, single point]"
CCOC(=O)c1sc2nc(OCc3cccnc3)cc(C)c2c1N,,"inconclusive [inhibitor, single point]"
Cc1ccc(CNC(=O)CCCOc2cc(=O)n(C)c3ccccc23)o1,,"inconclusive [inhibitor, single point]"
Cc1ccccc1N(C)C(=O)C1CCCN(c2ncnc3c2nc2n3CCCCC2)C1 (stereo unspecified),,active: 23.1 µM
O=C1N=C(N2CCOCC2)S/C1=C\c1ccc(-c2ccccc2Cl)o1,,"inconclusive [inhibitor, partial curve]"
O=C(COc1ccc([N+](=O)[O-])cc1)N/N=C/c1cc([N+](=O)[O-])ccc1N1CCOCC1,,"inconclusive [inhibitor, partial curve]"
O=C(c1ccc(Cl)c([N+](=O)[O-])c1)N(Cc1ccc(Cl)cc1)C1CCS(=O)(=O)C1 (stereo unspecified),,active: 23.1 µM
CC(C)c1ccc(N(CC(=O)NCC2CCCO2)C(=O)Cn2nnc(-c3cccs3)n2)cc1 (stereo unspecified),inactive: 0.437%,
CCOC(=O)c1ccc(NC(=S)Nc2ccccc2)cc1,,"inconclusive [inhibitor, single point]"
COc1cc(C)ccc1N(CCCN1C(=O)c2cccc3cccc(c23)C1=O)C(=O)c1cccs1,,active: 9.2 µM
O=C(NCc1n[nH]c(=S)n1-c1ccc(F)cc1)c1ccc(S(=O)(=O)N2CCCC2)cc1,inactive: 2.59%,
Cc1ccccc1C(=O)NCCNC(=O)c1ccccn1,,"inconclusive [inhibitor, partial curve, poor fit]"
O=C(NC1(C(F)(F)F)N=C(c2ccccc2)N(C2CCCCC2)C1=O)c1ccccc1F (stereo unspecified),,"inconclusive [inhibitor, single point]"
COc1ccc(NS(=O)(=O)c2cc3c4c(c2)CC(=O)N4CCC3)cc1Cl,,"inconclusive [inhibitor, partial curve]"
COc1ccc(NS(=O)(=O)c2cc(-c3cnc(C4CC4)o3)ccc2C)cc1,,active: 4.61 µM
O=C(Nc1cccc(-c2cccc(Cl)c2)c1)C1CCN(Cc2ccccn2)CC1,,active: 25.9 µM

# — PubChem BioAssay AID686978 (National Center for Advancing Translational Sciences (NCATS), 2013)
